Results taken from PubChem BioAssay AID1347073 (National Center for Advancing Translational Sciences (NCATS), 2019).
Among all 45,000 compounds or so, about 200 (0.44%) were called active. Inconclusive results (about 7%) are left out. The call rests on the fitted dose curve; in most records, active means well fitted activation curve with a large enough effect; inconclusive means small, poorly fitted or top-dose-only effect; inactive means no such curve, though single readings can be large or run the other way. This is one part of the list.

assay: qHTS of TDP-43 Inhibitors: NCGC Sytravon Library Screen; conditions: yeast TDP-43 toxicity rescue, BacTiter-Glo growth, 24 h; series mostly up to 46.1 µM; growth rescue (activation): at the top concentration; further: nearly all actives have a fitted effect of over 55% in size; on growth rescue (activation): 0% is about no effect
In short: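 TDP-43-expressing yeast, pregrown in raffinose, seeded at OD600 0.02 in galactose medium with compound for 24 hr at 30 deg C. Growth read by BacTiter-Glo luminescence, so rescue of toxicity appears as activation.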
Potency means the concentration at half of the fitted maximal effect.

Row | SMILES | growth rescue (activation) | Potency
1 | Cc1ccc(NC(=O)CSC(C)C(=O)NCCc2ccccn2)cc1 (stereo not drawn) | inactive: -4.23% | 
2 | c1ccc(-c2nc(-c3ccco3)n3ccccc23)cc1 |  | active: 12.6 µM
3 | COc1ccc(C2=NNC(c3ccco3)=Nc3ccc(F)cc32)cc1 | inactive: 10.8% | 
4 | COc1ccc(OC)c(/C=N/Nc2cc(C)nc(N3CCOCC3)n2)c1 | inactive: 11.6% | 
5 | CS(=O)(=O)N(CC(=O)NCCSc1ccccn1)c1ccc(F)cc1 | inactive: -11.6% | 
6 | Cc1ccc(CNC(=O)CN2CCN(c3ccc(F)cc3)CC2)cc1 | inactive: 5.56% | 
7 | COc1cc(C(=O)O)cc(OC)c1OCc1cc(C(=O)O)oc1C | inactive: 2.47% | 
8 | Cc1cccc(N2CCN(CC(=O)N(C3CCCC3)C3CCS(=O)(=O)C3)CC2)c1C (stereo not drawn) | inactive: 19.8% | 
9 | COc1ccc(-c2cn3nc(SCC(=O)NC4CCCCC4)ccc3n2)cc1 | inactive: 2.25% | 
10 | COc1cc2cc(CN(Cc3nnnn3Cc3ccco3)C3CCCCC3)c(=O)[nH]c2cc1OC | inactive: -1.41% | 
11 | COC(=O)c1sc(NC(=O)c2ccc(C)o2)nc1C | inactive: -8.93% | 
12 | O=C(NC1CCCC1)c1cc(-c2ccc(Cl)c(Cl)c2)on1 | inactive: 25.6% | 
13 | O=C(Nc1cccc(S(=O)(=O)N2CCCCC2)c1)c1c2c(nc3ccccc13)CCN(Cc1ccccc1)C2 | inactive: -5.54% | 
14 | Cc1nc2c(OCc3ccc(Cl)cc3Cl)cccn2c1N(C)CC1CC1 | inactive: -1.5% | 
15 | COc1ccc(N2CCN(C(=O)CCC(=O)c3cc(C)sc3C)CC2)cc1 | inactive: 29% | 
16 | CC1(C)Oc2ccccc2OC1(O)c1ccc2ccccc2n1 (stereo not drawn) | inactive: 5.13% | 
17 | O=C(O)CSc1c2c(nc3cc(C(=O)N4CCCC4)ccc13)CCCC2 | inactive: -1.17% | 
18 | O=C(Cc1c(Cl)cccc1Cl)NC1CC1 | inactive: 4.37% | 
19 | COC(=O)C1=CN(Cc2ccc(OC)cc2)C=C(C(=O)OC)C1c1cccs1 | inactive: 29.1% | 
20 | C/C(=N\Nc1ccc(S(N)(=O)=O)cc1[N+](=O)[O-])c1ccco1 | inactive: -12.7% | 
21 | O=C(CNC(=O)c1cccnc1)N/N=C/c1cc(Br)c(O)c(Br)c1 | inactive: 4.52% | 
22 | COc1ccc(CN2CCNC(=O)C2CC(=O)NCc2csc(C(C)C)n2)c(OC)c1 (stereo not drawn) | inactive: -8.24% | 

Row | SMILES | growth rescue (activation) | Potency
23 | Cc1ccc(NNC(=O)C(=O)N2CCCCC2)cc1 | inactive: 30.5% | 
24 | Cc1ccc(N=C2NC(=O)/C(=C/c3cn(C)c4ccccc34)S2)cc1C | inactive: 10.8% | 
25 | CC(C)N(CCc1ccncc1)C(=S)Nc1cccc(Cl)c1 | inactive: 12.5% | 
26 | FC(F)(F)c1ccc(Cl)c(NC2=NCCCCC2)c1 | inactive: -8.72% | 
27 | CCc1nc(SCC(=O)c2ccccc2)c2ccccc2n1 | inactive: 27.2% | 
28 | Cc1nc2nncn2c(N2CCN(c3ccccc3)CC2)c1C | inactive: 31% | 
29 | COc1ccccc1/C=C/c1nc(C#N)c(N2CCCCC2)o1 | inactive: 15.5% | 
30 | COC(=O)c1c(NC(=O)CSc2nnc(C)c(=O)[nH]2)sc(C)c1C | inactive: 20.5% | 
31 | Cc1ccc(OCCOc2ccc(Cl)cc2Cl)c([N+](=O)[O-])n1 | inactive: 27.6% | 
32 | CC(=O)Nc1ccc(Br)c2ccccc12 | inactive: 8.05% | 
33 | CC(C)CCC1=NN(C(=O)c2ccco2)C(O)(C(F)(F)F)C1 (stereo not drawn) | inactive: 23.5% | 
34 | Clc1ccc(C(c2ccccc2)N2CCN(c3ccccn3)CC2)cc1 (stereo not drawn) | inactive: -19% | 
35 | COc1ccc2[nH]c3c(NCCCOC(C)C)ncnc3c2c1 | inactive: -8.52% | 
36 | CCOc1ccc2nc(S(=O)(=O)NC(=O)C3(C)CCN3C(=O)c3cccc(F)c3)sc2c1 (stereo not drawn) | inactive: 7.08% | 
37 | COc1cc(C=O)cc(Br)c1OCC(N)=O | inactive: 12.6% | 
38 | CCCC1CCC(c2ccc(C(=O)NN)cc2)CC1 (stereo not drawn) | inactive: 11.6% | 
39 | C/C(=N\NC(=O)c1cc(-c2ccc(C)s2)[nH]n1)c1ccncc1 | inactive: 18.7% | 
40 | CCCc1nnc(SCC(=O)Nc2ccc(Cl)cc2Cl)o1 | inactive: 26.5% | 
41 | CCOC(=O)c1[nH]c2ccc(F)cc2c1NC(=O)CN1CCN(C/C=C/c2ccccc2)CC1 | inactive: 25.7% | 
42 | Cc1cccc(C(=O)OC(C)CN2C(C)CCCC2C)c1 (stereo not drawn) | inactive: 6.83% | 
43 | Cc1ccc(/C=C/S(=O)(=O)NCCC(=O)NCc2ccccc2F)cc1 | inactive: 4.67% | 
44 | COc1ccc2c(/C=N/Nc3ccc(C(=O)O)cc3)c[nH]c2c1 | inactive: 1.14% | 

Row | SMILES | growth rescue (activation) | Potency
45 | COc1ccccc1NC(=O)c1c(Nc2ccccc2F)sc(C(=O)Nc2cccc(Cl)c2)c1N | inactive: 8.01% | 
46 | O=C(CN1C(=O)c2ccccc2C1=O)NCC(=O)OCC(=O)c1ccc(Cl)cc1 | inactive: 10.3% | 
47 | CC(=O)N1N=C(c2ccc(C)cc2)CC1c1ccco1 (stereo not drawn) | inactive: 16.1% | 
48 | O=C(N/N=C/c1cn(Cc2ccccc2)c2ccccc12)c1cccnc1 | inactive: 38.7% | 
49 | NC(=O)Nn1c(CCC(=O)O)ccc1-c1ccc(Cl)cc1 | inactive: 11.4% | 
50 | O=C(NC(c1ccccc1)c1ccc2ccccc2n1)C1CCN(Cc2ccc(Oc3ccccc3)cc2)CC1 (stereo not drawn) | inactive: 8.77% | 
51 | COc1cccc(NC(=O)NC2CCCCC2C)c1 (stereo not drawn) | inactive: 1.73% | 
52 | O=C(COC(=O)c1ccc2c(c1)C(=O)N(c1cccc3ncccc13)C2=O)c1ccc(Cl)cc1 | inactive: -7.48% | 
53 | COc1ccc(S(=O)(=O)Nc2ccccn2)cc1 | inactive: 11% | 
54 | Cc1ccccc1NC(=S)/C(=C(\[O-])c1ccc(C)c([N+](=O)[O-])c1)[n+]1ccccc1 | inactive: 6.75% | 
55 | CCCCOC(=O)Nc1ccc(N(C)C)cc1 | inactive: -4.29% | 
56 | COc1ccc(NC(=S)NN(C)C(=S)Nc2ccc(OC)cc2)cc1 | inactive: 23.2% | 
57 | Cc1ccc2nc(/C(C#N)=C\c3ccc(Oc4ccc([N+](=O)[O-])cn4)cc3)[nH]c2c1 | inactive: -0.0619% | 
58 | O=C(CN(C(=O)CCC(=O)Nc1ccccn1)c1cccc(F)c1)NCc1ccco1 | inactive: -1.03% | 
59 | O=C(CSc1nnc(NC(=O)c2c(F)cccc2F)s1)NCc1ccccc1 | inactive: 3.15% | 
60 | CC(C)Oc1ccc(C2CC(=O)N(c3ccc(C(=O)O)cc3)C2=O)cc1 (stereo not drawn) | inactive: -4.64% | 
61 | CCOC(=O)C1(CCOc2ccccc2)CCN(C(=O)CCSC)CC1 | inactive: 11.2% | 
62 | C=CCn1c(C)c(/C=C/c2cc[n+](C)cc2)c2ccccc21 | inactive: -1.83% | 
63 | COc1ccccc1CNC(=O)CC12CC3CC(CC(Br)(C3)C1)C2 | inactive: -2.15% | 
64 | Cc1ccc(C)c(N2CCN(c3cnn(-c4nc5ccccc5s4)c(=O)c3Cl)CC2)c1 | inactive: 7.99% | 
65 | Cc1ccc(/C=C2\SC(=S)N(CCC(=O)NCCCN3CCOCC3)C2=O)cc1 | inactive: -8.12% | 
66 | Cc1cc(C)nc(NC(=O)c2ccc(COc3ccccc3Cl)cc2)c1 | inactive: 25% | 

Row | SMILES | growth rescue (activation) | Potency
67 | CCOCCCNc1nc(C)nc2c1nnn2Cc1c(F)cccc1Cl | inactive: 25.5% | 
68 | CSc1ccccc1OCc1cc(C(=O)NCCn2ccnc2C)no1 | inactive: 5.68% | 
69 | COc1cc(OC)c(NS(=O)(=O)c2cccc(C(=O)OCC(=O)NCC3CCCO3)c2)cc1Cl (stereo not drawn) | inactive: 2.62% | 
70 | CCCC(=O)N1CCCC1(C)C(=O)Nc1ccc2cn[nH]c2c1 (stereo not drawn) | inactive: -2.02% | 
71 | Cc1ccc(-c2nc3ccccc3s2)cc1NC(=S)NC(=O)c1cccc2ccccc12 | inactive: 5.63% | 
72 | Cc1ccc(NS(=O)(=O)c2ccc(CCC(=O)NCc3cccnc3)cc2)cc1 | inactive: -4.53% | 
73 | Cc1cc(C)cc(N(C(=O)c2sc(C)nc2C)C(C(=O)NC(C)(C)C)c2ccncc2)c1 (stereo not drawn) | inactive: -8.52% | 
74 | Cc1ccc(N(C(=O)CNC(=O)c2ccco2)C(C(=O)NC2CCCCC2)c2cccnc2)c(C)c1 (stereo not drawn) | inactive: -35.3% | 
75 | Cc1cc(C)c2c(N)c(C(=O)NNC(=O)c3ccccc3)sc2n1 | inactive: 18.8% | 
76 | CC1(C(=O)Nc2ccc3c(c2)OCO3)CCN1Cc1ccccc1OC(F)F (stereo not drawn) | inactive: 17.2% | 
77 | O=C(CN1CCCC1)Nc1ccc(Cl)cc1C(F)(F)F | inactive: -9.9% | 
78 | Cc1cc(-c2nn(-c3ccccc3F)cc2CN2CCN(c3ccncc3)CC2)c(C)s1 | inactive: 4.63% | 
79 | Cc1ccc(/C=N/n2c(-c3cccc(Cl)c3)n[nH]c2=S)o1 | inactive: 7.23% | 
80 | COC(=O)c1ccc(C(=S)N2CCCCC2)cc1 | inactive: 18.2% | 
81 | Cc1nc(C(F)(F)F)nc(Nc2ccc(N=Nc3ccccc3)cc2)c1C#N | inactive: 11% | 
82 | O=[N+]([O-])c1ccc(Cl)cc1CN1CCCCCC1 | inactive: -7.92% | 
83 | COCc1ccc(C(=O)N2CCCC(C(=O)c3ccc(SC)cc3)C2)o1 (stereo not drawn) | inactive: 11.3% | 
84 | COc1ccc(OC)c(S(=O)(=O)n2cnc3ccccc32)c1 | inactive: -5.26% | 
85 | CC(C)(CO)Nc1ccc([N+](=O)[O-])cc1[N+](=O)[O-] | inactive: 3.91% | 
86 | O=[N+]([O-])c1ccc(N2CCN(c3ccc(F)cc3)CC2)cn1 | inactive: 37.7% | 
87 | O=C(c1cc2cc(Br)ccc2[nH]1)N1CCc2ccccc21 | inactive: 24.3% | 
88 | N#Cc1cccc2cnccc12 | inactive: 11.7% | 

Row | SMILES | growth rescue (activation) | Potency
89 | C/C=C/c1ccc(OCCCCOc2ccccc2F)c(OC)c1 | inactive: 14.5% | 
90 | Cc1ccc(Cn2c3ccccc3c3cnn(CC(=O)Nc4cc(Cl)ccc4C)c(=O)c32)cc1 | inactive: 7.37% | 
91 | O=C(/C=C\NCC(=O)c1ccccc1)c1ccc2ccccc2c1 | inactive: -6.39% | 
92 | CCc1nn(CCCC(=O)NCc2ccc(OC(C)C)cc2)c(=O)c2cc3occc3n12 | inactive: 6.67% | 
93 | C=C(C)COc1ccc(-c2[nH]ncc2-c2ccccc2)c(O)c1 | inactive: 3.48% | 
94 | CCCC(=O)c1c(NCCO)cc(C)oc1=O | inactive: -18.7% | 
95 | COc1ccc(CN(C)CC(=O)Nc2ccccc2C(F)(F)F)cc1 | inactive: 5.73% | 
96 | COc1ccc2[nH]c(=O)c(CN(CC3CCCO3)S(=O)(=O)c3ccccc3F)cc2c1 (stereo not drawn) | inactive: -6.81% | 
97 | CC(C(=O)NC1C(=O)N2C(C(=O)O)=C(CSc3nnnn3C)CSC12)n1cc(Cl)cn1 (stereo not drawn) | inactive: -4.54% | 
98 | COc1ccc(/C=C(/NC(=O)c2ccccc2)C(=O)NCC2CCCO2)cc1 (stereo not drawn) | inactive: -0.868% | 
99 | Cc1cc(NC(=O)CN2CCCC(C)C2)n(-c2nc3ccccc3s2)n1 (stereo not drawn) | inactive: 26.3% | 
100 | O=C1CCCC2=C1C(c1ccc(O)c(Br)c1)C1=C(CCCC1=O)N2c1ccccc1 | inactive: -6.39% | 
101 | CCc1nc(SCC(=O)Nc2nnc(C(C)C)s2)n[nH]1 | inactive: 4.81% | 
102 | Cc1ccn2c(C(=O)N/N=C\c3ccc4c(c3)OCO4)c(C)nc2c1 | inactive: 15.6% | 
103 | O=C(COC(=O)c1c[nH]c2ccccc12)Nc1ccccc1 | inactive: 8.28% | 
104 | CCN(CC)S(=O)(=O)c1cc(NC(=O)C(C)N2CCN(c3ccccn3)CC2)ccc1C (stereo not drawn) | inactive: 2.08% | 
105 | CCCc1nc2ccc(NC(=O)NCCC(=O)OCC)cc2c(=O)n1Cc1cccc(Cl)c1 | inactive: -3.08% | 
106 | CC(=O)Nc1ccc(NC(=O)COC(=O)c2cc(S(=O)(=O)N3CCCC3)ccc2O)cc1 | inactive: -3.82% | 
107 | COc1cc2[nH]c(=O)n(CCCC(=O)NCCc3ccccc3)c(=O)c2cc1OC | inactive: 20.3% | 
108 | CCCCOCCCNC(=O)CC(C)c1ccccc1 (stereo not drawn) | inactive: 29.1% | 
